Laboratory results as given in publication PMC6338662.
Residue numbers refer to the chain shown, from its start. No constants are given. Whether binding was seen depends on the method and setting. In cells and extracts the contact can be indirect. Some binding calls cover weakened binding; strength is not graded here. Tags and fused reporters may be left off the sequences shown.

By UniProt entry, the sequences of proteins in these tests, tags left out.
UniProt Q9UM11: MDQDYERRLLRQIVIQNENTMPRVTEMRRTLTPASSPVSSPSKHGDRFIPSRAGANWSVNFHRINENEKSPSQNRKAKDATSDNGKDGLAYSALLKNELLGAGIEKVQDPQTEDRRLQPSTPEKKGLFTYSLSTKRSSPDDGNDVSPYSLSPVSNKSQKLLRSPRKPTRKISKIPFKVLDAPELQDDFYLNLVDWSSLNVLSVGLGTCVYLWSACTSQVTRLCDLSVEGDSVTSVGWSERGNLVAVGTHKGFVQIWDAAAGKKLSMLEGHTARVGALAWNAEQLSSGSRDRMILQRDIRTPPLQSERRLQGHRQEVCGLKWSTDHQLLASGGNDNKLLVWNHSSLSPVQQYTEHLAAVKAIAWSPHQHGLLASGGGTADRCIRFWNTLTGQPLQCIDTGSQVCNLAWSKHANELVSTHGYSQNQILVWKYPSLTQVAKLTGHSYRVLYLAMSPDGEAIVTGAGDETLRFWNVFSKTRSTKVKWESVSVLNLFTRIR

Columns and labels:
Experiment in all cases: pull-down; GFP or GFP–MCPH1 variants immunoprecipitated from HEK293 lysate and held on GFP-Trap beads, incubated 3 h at 4°C with HEK293 cell extract containing FLAG–CDH1 (or CDH1 fragments) in NETN buffer (50 mM Tris pH 7.6, 150 mM NaCl, 1 mM EDTA, 1% NP-40); washed 3 times in TBST; Western blot; only the target purified
GFP–MCPH1 1–391 (human) = biological target: T1, GFP–MCPH1 1–391 (human) (UniProt Q8NEM0)
T1 sequence: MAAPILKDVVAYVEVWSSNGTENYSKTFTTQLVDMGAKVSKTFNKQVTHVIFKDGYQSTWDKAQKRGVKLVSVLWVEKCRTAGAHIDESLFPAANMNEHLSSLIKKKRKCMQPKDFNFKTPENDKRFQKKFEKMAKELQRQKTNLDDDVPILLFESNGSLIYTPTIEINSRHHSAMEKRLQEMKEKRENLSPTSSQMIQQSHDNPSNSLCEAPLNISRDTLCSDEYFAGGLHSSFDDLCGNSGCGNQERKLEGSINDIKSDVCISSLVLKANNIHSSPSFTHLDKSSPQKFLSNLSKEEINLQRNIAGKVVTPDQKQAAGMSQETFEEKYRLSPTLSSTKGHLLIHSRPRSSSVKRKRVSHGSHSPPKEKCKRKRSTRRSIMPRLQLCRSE

[1] = biological target: T2, GFP–MCPH1-L (microcephalin-1, long isoform, 835 aa) (human) (UniProt Q8NEM0)
T2 sequence: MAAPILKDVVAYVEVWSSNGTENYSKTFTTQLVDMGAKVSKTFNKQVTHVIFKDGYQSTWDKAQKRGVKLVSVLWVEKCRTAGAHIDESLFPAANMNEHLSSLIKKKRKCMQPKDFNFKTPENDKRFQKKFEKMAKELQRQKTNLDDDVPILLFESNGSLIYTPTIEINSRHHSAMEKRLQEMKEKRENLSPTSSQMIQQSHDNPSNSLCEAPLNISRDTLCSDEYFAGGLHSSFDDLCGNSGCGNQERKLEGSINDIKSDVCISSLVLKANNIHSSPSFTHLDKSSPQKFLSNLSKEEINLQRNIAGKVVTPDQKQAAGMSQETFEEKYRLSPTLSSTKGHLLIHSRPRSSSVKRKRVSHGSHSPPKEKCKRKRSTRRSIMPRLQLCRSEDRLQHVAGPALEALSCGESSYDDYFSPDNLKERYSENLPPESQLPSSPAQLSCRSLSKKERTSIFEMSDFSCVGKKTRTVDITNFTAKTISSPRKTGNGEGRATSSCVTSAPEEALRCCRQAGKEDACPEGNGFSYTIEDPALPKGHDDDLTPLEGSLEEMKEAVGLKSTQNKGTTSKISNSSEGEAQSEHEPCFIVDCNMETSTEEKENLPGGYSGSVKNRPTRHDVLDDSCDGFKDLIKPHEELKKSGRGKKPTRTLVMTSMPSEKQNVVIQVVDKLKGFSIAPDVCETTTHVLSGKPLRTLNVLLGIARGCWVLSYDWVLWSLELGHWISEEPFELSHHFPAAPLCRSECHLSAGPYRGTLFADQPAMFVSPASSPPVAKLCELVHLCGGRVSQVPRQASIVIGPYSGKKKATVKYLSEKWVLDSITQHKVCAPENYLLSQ

[2] = biological target: T3, GFP–MCPH1-L S769A (human) (UniProt Q8NEM0)
T3 sequence: T2 sequence with S769A

[3] = biological target: T4, GFP–MCPH1-L S769E (human) (UniProt Q8NEM0)
T4 sequence: T2 sequence with S769E

[4] = biological target: T5, GFP–MCPH1-L T754A (human) (UniProt Q8NEM0)
T5 sequence: T2 sequence with T754A

FLAG–CDH1 (from UniProt Q9UM11 1-496)
binding (GFP–MCPH1 1–391 (human)): no binding | binding [1]: binds | binding [2]: binds | binding [3]: binds | binding [4]: binds
